Data on 69 compounds can be found in the supplement of paper PMC8183993.

Where “and” joins values, the source holds several entries; their conditions need not be identical. Equal values may be shown once. Where a name gives a salt, the structure may show the parent alone. ± gives the standard deviation of the averaged measurements. The full ranking holds about 3,100 compounds; the median of “mean cytoplasmic OPP incorporation (global translation) relative to DMSO” is about 100, and the lowest 2% start at about 56. This is one part of the list.

This assay has as its system U2OS. Kind of assay: mean cytoplasmic OPP incorporation (global translation) relative to DMSO (% of DMSO); higher = more protein synthesis. The conditions noted are these: 10 µM; 24 h. On the procedure:
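Primary image-based screen in U2OS cells: compounds at 10 uM for 24 h, then a 1 h o-propargyl-puromycin (OPP) pulse, click labelling, and high-throughput microscopy. Mean cytoplasmic OPP intensity and nuclei count were normalised to DMSO wells within each plate (DMSO = 100) and averaged over triplicate plates.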
For the compound `Nc1ccccc1NC(=O)c1ccc(CNC(=O)OCc2cccnc2)cc1` [Entinostat (MS-275, SNDX-275)], the “mean cytoplasmic OPP incorporation” value came out at 23.5.

On to `COc1cccc(OC)c1OCCNCC1COc2ccccc2O1` (centres undefined) [WB 4101 hydrochloride], for which the “mean cytoplasmic OPP incorporation” value came to 108.

On to `CN(C)CC[C@H](CSc1ccccc1)Nc1ccc(S(=O)(=O)NC(=O)c2ccc(N3CCN(Cc4ccccc4-c4ccc(Cl)cc4)CC3)cc2)cc1[N+](=O)[O-]`, for which the “mean cytoplasmic OPP incorporation” value worked out at 114.

Consider `C[C@H]1COC2=C1C(=O)C(=O)c1c2ccc2c1CCCC2(C)C` [Cryptotanshinone], for which the “mean cytoplasmic OPP incorporation” value is 99.6.

Consider `NC(=O)Cc1cccc(C(=O)c2ccccc2)c1N` [Nepafenac], for which the “mean cytoplasmic OPP incorporation” value is 99.2.

With `CCCCC1=NC2(CCCC2)C(=O)N1Cc1ccc(-c2ccccc2-c2nnn[nH]2)cc1` [Irbesartan (Avapro)], the “mean cytoplasmic OPP incorporation” value was 102.

As for `CC1(C)OC2=C(C(=O)c3ccccc3C2=O)[C@H](NCc2ccccc2)[C@@H]1O`, the “mean cytoplasmic OPP incorporation” value stood at 38.9.

For `O=[N+]([O-])c1ccc2c(c1)S(=O)(=O)C=C2` [Stattic], the “mean cytoplasmic OPP incorporation” value was 48.5.

On to `N[C@@H]1CCCCN(c2c(F)cc3c(=O)c(C(=O)O)cn(C4CC4)c3c2Cl)C1` [Besifloxacin HCl (Besivance)], for which the “mean cytoplasmic OPP incorporation” value was 108.

Consider `CC[C@H]1OC(=O)[C@H](C)[C@@H](O[C@H]2C[C@@](C)(OC)[C@@H](O)[C@H](C)O2)[C@H](C)[C@@H](O[C@@H]2O[C@H](C)C[C@H](N(C)C)[C@H]2O)[C@](C)(OC)C[C@@H](C)C(=O)[C@H](C)[C@@H](O)[C@]1(C)O` [Clarithromycin (Biaxin, Klacid)], for which the “mean cytoplasmic OPP incorporation” value was determined as 109.

With `CCOc1ccccc1OCC1CNCCO1` (centres undefined) [Viloxazine hydrochloride], the “mean cytoplasmic OPP incorporation” value turned out to be 87.8.

For the compound `CCCCOC(=O)c1ccc(N)cc1` [Butamben], the “mean cytoplasmic OPP incorporation” value came out at 93.

Take `Cc1ccc(S(=O)(=O)n2c(N)nc3ccccc32)cc1`: the “mean cytoplasmic OPP incorporation” value was found to be 102.

`CNC(=O)c1ccc(-c2cnc3ncc(Cc4ccc5ncccc5c4)n3n2)cc1F`: the “mean cytoplasmic OPP incorporation” value was found to be 107.

Consider `CC(C)COCC(CN(Cc1ccccc1)c1ccccc1)N1CCCC1` (centres undefined) [Bepridil hydrochloride], for which the “mean cytoplasmic OPP incorporation” value turned out to be 113.

For the compound `CC(C)COCC(CN(Cc1ccccc1)c1ccccc1)N1CCCC1` (centres undefined) [Bepridil], the “mean cytoplasmic OPP incorporation” value is 105.

As for `NC(=O)c1ncn([C@@H]2O[C@H](CO)[C@@H](O)[C@H]2O)n1` [Ribavirin (Copegus)], the “mean cytoplasmic OPP incorporation” value came to 98.1.

With `NC(=O)c1ncn([C@@H]2O[C@H](CO)[C@@H](O)[C@H]2O)n1` [Ribavirin], the “mean cytoplasmic OPP incorporation” value was 106.

Take `CCC(CC)(CC(=O)Nc1cccc(/C=C/c2nc(C3CCC3)cs2)c1)C(=O)O` [Cinalukast]: the “mean cytoplasmic OPP incorporation” value is 96.3.

Take `CCOC(=O)[C@H](CCc1ccccc1)N[C@@H](C)C(=O)N1[C@H](C(=O)O)C[C@@H]2CCC[C@@H]21` [Ramipril (Altace)]: the “mean cytoplasmic OPP incorporation” value worked out at 108.

For the compound `CCOC(=O)[C@H](CCc1ccccc1)N[C@@H](C)C(=O)N1[C@H](C(=O)O)C[C@@H]2CCC[C@@H]21` [Ramipril], the “mean cytoplasmic OPP incorporation” value came out at 105.

Take `CCOc1ccc2c(c1)C(C)=CC(C)(C)N2` [Ethoxyquin]: the “mean cytoplasmic OPP incorporation” value came out at 107 ± 6.1.

For the compound `CNC(=O)[C@@H](Cc1ccccc1)N(C)C(=O)[C@@H](Cc1ccc2ccccc2c1)N(C)C(=O)/C=C/CC(C)(C)N` [Tabimorelin], the “mean cytoplasmic OPP incorporation” value stood at 99.8.

Turning to `NS(=O)(=O)c1cc2c(cc1Cl)N=CNS2(=O)=O` [Chlorothiazide], the “mean cytoplasmic OPP incorporation” value was determined as 99.5.

In the case of `CN[C@H](CC(C)C)C(=O)N[C@H]1C(=O)N[C@@H](CC(N)=O)C(=O)N[C@H]2C(=O)N[C@H]3C(=O)N[C@H](C(=O)N[C@H](C(=O)O)c4cc(O)cc(O)c4-c4cc3ccc4O)[C@H](O)c3ccc(c(Cl)c3)Oc3cc2cc(c3O[C@@H]2O[C@H](CO)[C@@H](O)[C@H](O)[C@H]2O[C@H]2C[C@](C)(N)[C@H](O)[C@H](C)O2)Oc2ccc(cc2Cl)[C@H]1O` [Vancomycin HCl (Vancocin)], the “mean cytoplasmic OPP incorporation” value worked out at 101.

Regarding `CN[C@H](CC(C)C)C(=O)N[C@H]1C(=O)N[C@@H](CC(N)=O)C(=O)N[C@H]2C(=O)N[C@H]3C(=O)N[C@H](C(=O)N[C@H](C(=O)O)c4cc(O)cc(O)c4-c4cc3ccc4O)[C@H](O)c3ccc(c(Cl)c3)Oc3cc2cc(c3O[C@@H]2O[C@H](CO)[C@@H](O)[C@H](O)[C@H]2O[C@H]2C[C@](C)(N)[C@H](O)[C@H](C)O2)Oc2ccc(cc2Cl)[C@H]1O` [Vancomycin hydrochloride], the “mean cytoplasmic OPP incorporation” value is 99.3.

Regarding `O=c1c(O)c(-c2ccc(O)c(O)c2)oc2cc(O)ccc12` [Fisetin (Fustel)], the “mean cytoplasmic OPP incorporation” value was 100.

As to `COc1cc2ncnc(Oc3cccc(NC(=O)Nc4cc(C(C)(C)C(F)(F)F)on4)c3)c2cc1OC`, the “mean cytoplasmic OPP incorporation” value was found to be 108 ± 2.6.

With `CNS(=O)(=O)Cc1ccc2[nH]cc(CCN(C)C)c2c1` [Sumatriptan succinate], the “mean cytoplasmic OPP incorporation” value was 100 ± 1.9.

Turning to `NCC(=O)Nc1ccc(-n2nc(C(F)(F)F)cc2-c2ccc3c(ccc4ccccc43)c2)cc1`, the “mean cytoplasmic OPP incorporation” value turned out to be 102 ± 25.

Take `COc1ccc(-c2nc3cc(C4=NNC(=O)CC4C)ccc3[nH]2)cc1` (centres undefined) [Pimobendan (Vetmedin)]: the “mean cytoplasmic OPP incorporation” value was found to be 114.

For `O=C(O)C(=O)O.[NH-]C1CCCCC1[NH-].[Pt+2]` (centres undefined) [Oxaliplatin (Eloxatin)], the “mean cytoplasmic OPP incorporation” value worked out at 90.4.

Turning to `CCc1cncnc1N1CCN(Cc2nc3ccc(C(F)(F)F)cc3[nH]2)CC1`, the “mean cytoplasmic OPP incorporation” value is 104.3 ± 0.75.

Consider `CC1=C(C(=O)OC(C)C)C(c2cccc([N+](=O)[O-])c2)C(C(=O)OC2CN(C(c3ccccc3)c3ccccc3)C2)=C(N)N1` (centres undefined) [Azelnidipine], for which the “mean cytoplasmic OPP incorporation” value is 106.

In the case of `CCS(=O)(=O)N(C)[C@H]1c2cc(C#N)ccc2OC(C)(C)[C@@H]1O` [(-)-[3R,4S]-Chromanol 293B], the “mean cytoplasmic OPP incorporation” value turned out to be 98.1.

As for `Cc1cc(C2CCCCC2)n(O)c(=O)c1` [Ciclopirox ethanolamine], the “mean cytoplasmic OPP incorporation” value is 93.3 ± 8.5.

Turning to `COc1cc(C(=O)NS(=O)(=O)c2ccccc2C)ccc1Cc1cn(C)c2ccc(NC(=O)OC3CCCC3)cc12` [Zafirlukast], the “mean cytoplasmic OPP incorporation” value was 112.

Turning to `CCOc1cc([C@@H](CS(C)(=O)=O)N2C(=O)c3cccc(NC(C)=O)c3C2=O)ccc1OC`, the “mean cytoplasmic OPP incorporation” value worked out at 96.7.

For the compound `CCn1nnc2c(N3CCOCC3)nc(-c3ccc(NC(=O)Nc4ccc(C(=O)N5CCN(C)CC5)cc4)cc3)nc21`, the “mean cytoplasmic OPP incorporation” value came to 67.6.

On to `NS(=O)(=O)c1cc(C(=O)O)c(NCc2ccco2)cc1Cl` [Furosemide], for which the “mean cytoplasmic OPP incorporation” value turned out to be 93.9.

Consider `O=C(O)c1ccccc1Nc1ccccc1` [N-phenylanthranilic acid], for which the “mean cytoplasmic OPP incorporation” value amounted to 100.

Regarding `CC[C@H](C)[C@H](N)C1=N[C@H](C(=O)N[C@@H](CC(C)C)C(=O)N[C@H](CCC(=O)[O-])C(=O)N[C@H](C(=O)N[C@H]2CCCCNC(=O)[C@H](CC(N)=O)NC(=O)[C@@H](CC(=O)[O-])NC(=O)[C@H](Cc3cnc[nH]3)NC(=O)[C@@H](Cc3ccccc3)NC(=O)[C@H]([C@@H](C)CC)NC(=O)[C@@H](CCCN)NC2=O)[C@@H](C)CC)CS1.[Zn+2]` [Bacitracin zinc], the “mean cytoplasmic OPP incorporation” value worked out at 107.

For the compound `C[C@@H]1NC(=O)NC1=O` [Methylhydantoin-5-(L)], the “mean cytoplasmic OPP incorporation” value stood at 105.

`CCCCCCCCCCCCCCCC(=O)NCCO` [Palmitoylethanolamide]: the “mean cytoplasmic OPP incorporation” value was determined as 97.8.

As to `CO[C@@H](C(=O)N1Cc2[nH]nc(NC(=O)c3ccc(N4CCN(C)CC4)cc3)c2C1)c1ccccc1`, the “mean cytoplasmic OPP incorporation” value came to 88.8.

Regarding `CN1CCN(C2=Nc3cc(Cl)ccc3Nc3ccccc32)CC1` [Clozapine], the “mean cytoplasmic OPP incorporation” value came out at 101 ± 2.4.

For `NC12CC3CC(CC(C3)C1)C2` [Adamantamine fumarate], the “mean cytoplasmic OPP incorporation” value turned out to be 104.

Turning to `CC1(C2CCCC2)Cc2cc(OCC(=O)O)c(Cl)c(Cl)c2C1=O` (centres undefined), the “mean cytoplasmic OPP incorporation” value turned out to be 98.1.

Regarding `CO[C@H]1O[C@@H]2O[C@@]3(C)CC[C@H]4[C@H](C)CC[C@@H]([C@H]1C)[C@@]24OO3` [Artemether (SM-224)], the “mean cytoplasmic OPP incorporation” value came to 104.

With `Cc1[nH]c2ccccc2c1C(Nc1ccccn1)c1ccc(Cl)cc1` (centres undefined), the “mean cytoplasmic OPP incorporation” value came out at 113.

Regarding `Cc1cc(=O)n(-c2ccccc2)n1C` [Antipyrine], the “mean cytoplasmic OPP incorporation” value amounted to 106.

Consider `CC(C)[C@@H](O)CC[C@@H](C)[C@H]1CC[C@H]2[C@@H]3CC=C4C[C@@H](O)CC[C@]4(C)[C@H]3CC[C@]12C` [24(S)-Hydroxycholesterol], for which the “mean cytoplasmic OPP incorporation” value was found to be 104.

On to `Clc1ccc(COC(Cn2ccnc2)c2ccc(Cl)cc2Cl)c(Cl)c1` (centres undefined) [Miconazole], for which the “mean cytoplasmic OPP incorporation” value is 101.

On to `CC1CCc2c(N3CCC(O)CC3)c(F)cc3c(=O)c(C(=O)O)cn1c23` (centres undefined) [Nadifloxacin], for which the “mean cytoplasmic OPP incorporation” value was 100.

`CCCc1c(OCCCCc2nnn[nH]2)ccc(C(C)=O)c1O`: the “mean cytoplasmic OPP incorporation” value came out at 110.

As to `Cc1ccc(-c2ncc(Cl)cc2-c2ccc(S(C)(=O)=O)cc2)cn1` [Etoricoxib], the “mean cytoplasmic OPP incorporation” value was 95.8.

For the compound `CC1(C)C(=O)NC2=C1C(=O)C(=O)c1ccccc12`, the “mean cytoplasmic OPP incorporation” value is 59.6 and 42.6.

As to `CC(C)/N=c1\cc2n(-c3ccc(Cl)cc3)c3ccccc3nc-2cc1Nc1ccc(Cl)cc1` [Clofazimine], the “mean cytoplasmic OPP incorporation” value amounted to 112.

For `O=C1Cc2cc(CCN3CCN(c4nsc5ccccc45)CC3)c(Cl)cc2N1` [Ziprasidone  Hydrochloride], the “mean cytoplasmic OPP incorporation” value was 109.

`CCN[C@H]1C[C@H](C)S(=O)(=O)c2sc(S(N)(=O)=O)cc21` [Dorzolamide hydrochloride]: the “mean cytoplasmic OPP incorporation” value amounted to 95.4.

On to `CCN[C@H]1C[C@H](C)S(=O)(=O)c2sc(S(N)(=O)=O)cc21` [Dorzolamide HCl], for which the “mean cytoplasmic OPP incorporation” value worked out at 90.2.

As to `C[N+](C)(C)CCCCCNCC12CC3CC(CC(C3)C1)C2`, the “mean cytoplasmic OPP incorporation” value amounted to 105.

For the compound `CCC(C)[C@H](NS(=O)(=O)c1cccc2ccccc12)C(=O)N[C@H](C=O)Cc1c[nH]c2ccccc12` (some centres undefined), the “mean cytoplasmic OPP incorporation” value is 102.

Take `CC(=O)N(O)CCCCCNC(=O)CCC(=O)N(O)CCCCCNC(=O)CCC(=O)N(O)CCCCCN` [Deferoxamine mesylate]: the “mean cytoplasmic OPP incorporation” value is 90.6.

As to `NCCCCNCCCN` [Spermidine trihydrochloride], the “mean cytoplasmic OPP incorporation” value came to 101.

For `NCCCCNCCCN` [Spermidine], the “mean cytoplasmic OPP incorporation” value stood at 101.

Take `Nc1ncn([C@H]2C[C@H](O)[C@@H](CO)O2)c(=O)n1` [Decitabine]: the “mean cytoplasmic OPP incorporation” value was 97.5.

With `CC(C)(C(=O)c1cccnc1)c1cccnc1` [Metyrapone], the “mean cytoplasmic OPP incorporation” value turned out to be 109.

In the case of `O=C(Cc1ccc(-c2ccc(OCCN3CCOCC3)cc2)cn1)NCc1ccccc1`, the “mean cytoplasmic OPP incorporation” value was determined as 90.8.
